ChEMBL document CHEMBL4888484, “Replenishing the malaria drug discovery pipeline: Screening and hit evaluation of the MMV Hit Generation Library 1 (HGL1) against asexual blood stage Plasmodium falciparum ,using a nano luciferase reporter read-out” (2022)
The whole screen tested about 150,000 compounds, of which about 540 (0.36%) showed an effect of 50% or more. Some of the results follow.

test system: Plasmodium falciparum; assay: Primary screen in NF54 nanoGlo assay, in single point, at 2uM, 72h; a lower Z score goes with more inhibition; assay type: functional, Erythrocyte; conditions: timepoint 72 hour

Structure (SMILES) | % Inhibition [%] | Z score
COc1ccc(-c2noc(-c3cc(=O)[nH]c(C4CC4)n3)n2)cc1 | -8 | 1
CCCN(C)C(=O)C1CCCC(F)C1 (stereo not given) | 0 | 0.05
CC1CCN(C(=O)c2cc3oc(-c4ccc(F)cc4)cc3n2Cc2ccccc2)CC1 | -1 | 0.15
CS(=O)(=O)N(CC(=O)N1CCCCCC1)c1ccc(OCc2ccccc2)cc1 | -4 | 0.4
CCOc1ccc(-c2nc(C3CC3)n[nH]2)o1 | -2 | 0.22
COc1ccc(CCNC(=O)c2cc(C)nc(C)n2)cc1 | 3 | -0.49
NC(=O)CN(CCC1CCCCC1)C(=O)c1ccccn1 | 5 | -0.78
CCC(NC(=O)c1cc(=O)cc(C)n1C)[C@H]1C[C@H](O)C1 (stereo not given in full) | -12 | 1.51
CCCN1CCC(N2C[C@@H]3OC(=O)N(CCc4cccc(Cl)c4)[C@@H]3C2)CC1 | -17 | 1.6
Cc1ccc(NC(=O)C(F)F)c(Cl)c1 | 1 | -0.18
COc1cccc(F)c1C(=O)Nc1ccccc1N1C(=O)N[C@@H](C)C1=O | -7 | 1.03
COc1ccccc1C(=O)NC(=O)COC(=O)Cc1ccc(Cl)cc1 | -1 | 0.24
c1ccc(-c2nc(CN3CCc4ccccc4C3)cs2)cc1 | -1 | 0.12
COc1ccccc1O[C@H]1CCCN(C(=O)c2ccc3[nH]c(=O)n(C)c3c2)C1 | 7 | -0.86
O=C1[C@H]2[C@@H](C(=O)N1c1ccc(Br)cc1)[C@]1(C(=O)Nc3ccc(F)cc31)N1CCC[C@@H]21 | -7 | 1.14
CNC(=O)[C@H]1CCN(C(=O)c2cn(C)nc2C2CC2)C1 | -3 | 0.47
Cc1noc(CNC(=O)C2CCN(C(=O)c3ccco3)CC2)n1 | -10 | 1.48
Cc1cc(C(=O)N2CCCCCC2)c2c(C)nn(-c3ccccc3Cl)c2n1 | -6 | 0.82
Cc1cc(C)nc(NS(=O)(=O)c2cc3c(cc2C)OCO3)n1 | -14 | 2.53
O=C(NC1CCCc2sc(Cl)cc21)C1CCc2[nH]ncc2C1 (stereo not given) | 1 | -0.22
Cc1ccc(OCC[C@H]2CCN(C(=O)c3cc(C)n(C)n3)C2)cc1 | -19 | 3.58
CC1CC1C(=O)NCCN1CCOCC1 (stereo not given) | -17 | 1.57
CCNC(=O)c1ccc2c(=O)n3c(nc2c1)CCCC3 | -1 | 0.21
NC(=O)c1coc(CNC(=O)C2(c3cccnc3)CCCC2)n1 | 2 | -0.17
Cc1ccc(C(=O)Nc2ncnc3sccc23)cc1 | -26 | 3.29
C=CCC[C@@H](CO)NC(=O)c1ccn(C(C)C)n1 | -36 | 4.2
O=C(c1cn(C(c2ccccc2)c2ccccc2)nn1)N1CCCCCCC1 | -2 | 0.39
CCc1ccc(C(=O)NCCn2nnc3cc(S(=O)(=O)NC(C)C)ccc32)cc1 | -11 | 1.3

Structure (SMILES) | % Inhibition [%] | Z score
COc1ccccc1/C=C/c1nc(-c2ccc(=O)n(C)c2)no1 | -10 | 1.57
O=C1[C@H]2C(Cc3c[nH]c4ccccc34)N[C@@]3(C(=O)Nc4ccc(Br)cc43)[C@H]2C(=O)N1CC1CCCO1 (stereo not given in full) | 0 | -0.06
CCOc1ncccc1-c1cnn(CC(=O)NC)c1 | 1 | -0.08
C#CCCN1CCC(C(=O)NCCCC)CC1 | -25 | 2.97
COC(=O)c1cc(-n2cnc3ccccc32)ccn1 | -1 | 0.18
O=C(NCCn1ccc(C(F)(F)F)n1)c1ccc(S(=O)(=O)N2CCOCC2)cc1 | -13 | 1.64
Cc1cccc(N2CCN(C(=O)N[C@H]3CCCCNC3=O)CC2)c1C | 0 | 0.04
Cc1ccc([C@@H]2CCCN2Cc2cnc3cnccn23)s1 | -1 | 0.11
Cc1nc(C)c(CC(=O)N2CCOC[C@@H](CO)C2)s1 | 1 | -0.19
CN(CCCCC1CCOCC1)CC1CCOCC1 | -3 | 0.37
O=C(NC1CCCC1)N(CCN1CCCCC1)C1CCOCC1 | -9 | 1.49
O=C(Nc1ccc(Cl)c(Cl)c1)N1CC(N2CC3CCCC3C2)C1 (stereo not given) | -12 | 1.39
C[C@H](NC(=O)c1coc(CN2CCN(c3cccc(C(F)(F)F)c3)CC2)n1)c1ccccc1 | -6 | 0.62
CCc1nc(-c2ccc(C(=O)Nc3cccnc3)cc2)no1 | -10 | 1.02
C[C@H]1CCCN(C(=O)C(=O)N2CC3(CC3)C2)C1 | 13 | -1.46
Cc1ccnc(NCCNC2CCCCCC2)c1 | -3 | 0.46
CCn1cnc2c1CCN(C(=O)Nc1cc(S(C)(=O)=O)ccn1)C2 | -1 | 0.17
COc1ccc(NC(=O)C(=O)Nc2cn[nH]c2)c(OC)c1 | -5 | 0.65
CCCn1nc(C(=O)N2CCC(C)CCC2C(C)C)ccc1=O (stereo not given) | -5 | 0.62
Cc1cccc([C@H](C2CC2)n2ccnc2-c2nc3ccccc3n2C)n1 | -10 | 1.26
CC(C)CCCN(C)C(=O)CC1CCC2(CC1)OCCO2 | -7 | 1
C[C@H]1CN(C(=O)NCc2ccc(Cn3ccnc3)cc2)CC(=O)N1C | -2 | 0.5
FC(F)(F)c1cccc(C2(c3nc([C@@H]4COCCN4)no3)CCOCC2)c1 | 0 | 0.05
Cc1nc(C)c(-c2cc(C(=O)N3CCN(c4ccc(F)cc4)CC3)[nH]n2)s1 | 5 | -0.65
COc1ccc(-n2nnc3c(=O)n(CC(=O)N4CCCCCC4)cnc32)cc1OC | -4 | 0.77
COc1cc2c(cc1OC)CN(C(=O)c1ccncc1)CC2 | 4 | -0.79
Cc1cccc(N(C)Cc2cc(-c3cnn(C)c3)no2)c1C | -2 | 0.29
